Measurements from PubChem BioAssay AID686971 (National Center for Advancing Translational Sciences (NCATS), 2013).
Several values for one entry are separate records, joined by “and”; a condition that tells them apart may be missing. Equal entries are not always repeated. The campaign covered roughly 360,000 compounds. About 7,500 (2.1%) were called active. Inconclusive results, whose numbers are uncertain, are shown with a selection of clear calls. The call rests on the fitted dose curve; in most records, active means well fitted cell-killing curve with a large enough effect; inconclusive means small, poorly fitted or top-dose-only effect, or effect the other way, or another doubt; inactive means no such curve, though single readings can be large or run the other way. A potency beside an inconclusive call is a rough fit, not a confirmed value.

Assay: qHTS for induction of synthetic lethality in tumor cells producing 2HG: qHTS for the HT-1080-IDH1KD cell line;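 on activity, negative = toxicity: 0% = DMSO wells and -100% = cell-free medium wells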
Details: HT-1080 IDH1 knockdown viability, ATP luminescence, 48 h; activity, negative = toxicity: at 46.1 µM (top of the series) unless noted
Method in brief: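 Viability of IDH1-knockdown HT-1080 fibrosarcoma cells was assessed by CellTiter-Glo after 48 h at 37 °C with titrated compound; concentration-effect curves were classified by fit quality and response size.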
Potency means the concentration at half of the fitted maximal effect; tags describe the fitted curve by direction and shape.

| SMILES | Potency | activity, negative = toxicity |
| --- | --- | --- |
| CC(=O)Nc1ccc(S(=O)(=O)NCCSCc2c(Cl)cccc2Cl)cc1 | inconclusive: 35.5 µM [cytotoxic, single point] |  |
| O=S(=O)(NC1c2cccc3cccc(c23)C1Sc1ncccn1)c1ccc(Cl)cc1 (stereo not drawn) |  | inactive: -16.2% |
| O=C(/C=C/c1ccco1)NC(=S)Nc1cccc([N+](=O)[O-])c1 | active: 13 µM |  |
| Cc1cc(C)n2nc(SCC3COc4ccccc4O3)nc2n1 (stereo not drawn) |  | inactive: -11.2% |
| COc1ccc(C(C(=O)NC(C)(C)C)N(CCO)C(=O)CCC(=O)Nc2cc(C)on2)cc1 (stereo not drawn) |  | inactive: 0.99% |
| COc1ccc(-c2ccc3[nH]c4c(c3c2)CCN2C(=O)[C@@H]([C@H](C)O)[C@@H](N(C)C(=O)Nc3ccccc3)C[C@@H]42)cc1 | active: 16.4 µM |  |
| CC1Cc2ccccc2N1S(=O)(=O)c1cccc(C(=O)Nc2cccnc2)c1 (stereo not drawn) | inconclusive: 29.1 µM [cytotoxic, single point] |  |
| Cc1cnc(NC(=O)CC(C)c2ccccc2)s1 (stereo not drawn) | inconclusive: 14.6 µM [cytotoxic, partial curve] |  |
| Cc1ccc(C(=O)NCCCc2ccccc2)c(C)c1 | inconclusive: 25.9 µM [rising, single point] |  |
| CN1CCN(C(=O)CCN2C(=O)/C(=C\c3ccc(Cl)cc3Cl)SC2=S)CC1 | inconclusive: 32.6 µM [cytotoxic, single point] |  |
| COc1ccccc1C(=O)NC(=O)COC(=O)CN1C(=O)NC(C)(C)C1=O |  | inactive: 8.37% |
| Cn1c(C(=O)N2CCCC(C(=O)NCCc3ccccc3)C2)cc2sccc21 (stereo not drawn) | inconclusive: 22.4 µM [cytotoxic, single point] |  |
| Cn1c(NCC(O)c2ccccc2)nc2c1c(=O)n(Cc1ccc(Cl)c(Cl)c1)c(=O)n2C (stereo not drawn) | active: 18.4 µM |  |
| O=C(OC1CCOC1=O)c1ccc(-c2nc3ccccc3s2)s1 (stereo not drawn) |  | inconclusive: -32.7% [cytotoxic] |
| CCCCOc1c(Br)cc(/C=C2\N=C(C)OC2=O)cc1OCC |  | inactive: -5.77% |
| c1ccc(CCNc2nc3ccccc3s2)cc1 | inconclusive: 35.5 µM [cytotoxic, single point] |  |
| Cc1ccc2c(c1)c(/C=C/c1cc[n+](C)cc1)c(C)n2C | inconclusive: 16.4 µM [cytotoxic, partial curve] |  |
| O=C(C1CCCCC1)N1C[C@@H](n2cc(-c3ccc(F)cc3)nn2)[C@H](O)C[C@@H]1c1ccccc1 | inconclusive: 29.1 µM [cytotoxic, single point] |  |
| O=C1Nc2ccccc2C(O)(C(=O)NCc2ccc3c(c2)OCO3)N1c1ccc(Cl)c(Cl)c1 (stereo not drawn) |  | inactive: 6% |
| CCC1(c2ccccc2)ON(c2c(Br)cccc2Br)C1=O (stereo not drawn) | active: 18.4 µM |  |
| C/C(=N\NC(=O)c1cccnc1)c1ccc(Br)cc1 |  | inconclusive: -32.2% [cytotoxic] |
| Cn1nnnc1SCC(=O)N(C1CCCCC1)C1CCS(=O)(=O)C1 (stereo not drawn) | inconclusive: 20.6 µM [rising, single point] |  |
| CCCCCC[n+]1ccccc1/C=C/c1ccc(N(C)C)cc1 | active: 1.16 µM |  |

| SMILES | Potency | activity, negative = toxicity |
| --- | --- | --- |
| O=C(Nc1ccccc1OC(=O)c1ccccc1)c1ccccc1 | active: 14.6 µM |  |
| COc1ccc(S(=O)(=O)NC2CC(=O)N(c3ccc(C)c(C)c3)C2)cc1 (stereo not drawn) |  | inactive: 0.973% |
| Oc1ccc(-c2csc(Nc3ncccn3)n2)c(O)c1 | inconclusive: 29.1 µM [cytotoxic, single point] |  |
| COC(=O)[C@]12CCCCC=C1N(Cc1ccccc1)C(=O)[C@H](CC(=O)N1CCC(c3ccccc3)CC1)C2 | inconclusive: 18.4 µM [cytotoxic, single point] |  |
| CN(c1ccccc1)c1nc(N)c([N+](=O)[O-])c(N2CCCCCC2)n1 | inconclusive: 20.6 µM [cytotoxic, single point] |  |
| CCOC(=O)CSC1=C(C#N)C(c2ccco2)C(C(=O)OCc2ccccc2)=C(C)N1 (stereo not drawn) | inconclusive: 35.5 µM [cytotoxic, single point] |  |
| OCC1(CCOc2ccccc2)CCN(Cc2cc(Cl)ccc2O)CC1 |  | inactive: -27.1% |
| CCN(CC)C(=S)NC(=O)Cc1ccccc1 |  | inactive: 8.39% |
| N#Cc1ccc(C(=O)N2CCN(S(=O)(=O)c3ccc(Cl)s3)CC2)cc1 |  | inactive: -1.21% |
| CCCCOc1ccccc1-c1ccccc1CN1[C@@H](C(C)C)COCCS1(=O)=O | inconclusive: 29.1 µM [cytotoxic, single point] |  |
| COC(=O)[C@@]1(Cc2ccc(F)cc2)[C@H]2c3cc(C(=O)N(C)C)n(Cc4ccsc4Br)c3C[C@H]2CN1C(=O)c1ccccc1 | inconclusive: 25.9 µM [cytotoxic, single point] |  |
| COc1cccc(NC(=O)C(Sc2nnc(-c3ccncc3)n2-c2ccc(Cl)cc2)c2ccccc2)c1 (stereo not drawn) | inconclusive: 18.4 µM [cytotoxic, partial curve] |  |
| C=CCOc1ccc(C2C(C#N)=C(N)N(Nc3ccccc3)C3=C2C(=O)CCC3)cc1OC (stereo not drawn) | inconclusive: 16.4 µM [cytotoxic, single point] |  |
| O=c1[nH]c(CN2CCN(c3ccccc3O)CC2)nc2scc(-c3ccccc3Cl)c12 | inconclusive: 23.1 µM [cytotoxic, single point] |  |
| CC1(C)C(N(O)C(=O)Nc2ccc(Cl)cc2)N(c2ccc(Cl)cc2)C(=O)N1CC(=O)NN (stereo not drawn) | inconclusive: 35.5 µM [cytotoxic, single point] |  |
| CN(C)/C=N/S(=O)(=O)c1cccn1-c1ncc(C(F)(F)F)cc1Cl |  | inactive: 15.5% |
| COc1ccc(C(=O)C2CCCN(Cc3cccn3-c3ccccn3)C2)cc1F (stereo not drawn) | inconclusive: 23.1 µM [cytotoxic, single point] |  |
| COc1ccc(C(CCN2CCCC(C)C2)c2c(OC)cc(OC)c3c(-c4ccccc4)cc(=O)oc23)cc1 (stereo not drawn) | inconclusive: 29.1 µM [cytotoxic, single point] |  |
| O=C(Nc1ccc(N2CCOCC2)c(S(=O)(=O)Nc2ccccc2Cl)c1)c1ccc(F)cc1 |  | inactive: -15.2% |
| O=C1Nc2ccc(Cl)cc2/C1=C/C1CC=CCC1 (stereo not drawn) | inconclusive: 29.1 µM [cytotoxic, single point] |  |
| CC(C)=CCOc1ccc([C@@H]2COc3c(ccc4c3C=CC(C)(C)O4)C2)c(O)c1 | inconclusive: 29.1 µM [cytotoxic, single point] |  |
| Cc1csc(Nc2nc(N)c(C(=O)Nc3cc(Cl)ccc3F)o2)n1 | inconclusive: 14.6 µM [cytotoxic, partial curve] |  |
| CC(=O)/C(C#N)=C1\NC(=O)C(Cc2ccc(C)c(Cl)c2)S1 (stereo not drawn) | inconclusive: 23.1 µM [cytotoxic, partial curve] |  |

| SMILES | Potency | activity, negative = toxicity |
| --- | --- | --- |
| Cc1cc(Nc2nc(Cl)c(Cl)cc2Cl)n(-c2ccccc2)n1 | inconclusive: 29.1 µM [cytotoxic, single point] |  |
| O=C(Nc1ccc(N2CCN(C(=O)c3ccc(Cl)cc3)CC2)cc1)c1ccc2c(c1)OCCO2 |  | inactive: -19.1% |
| COc1ccc(-c2cc(-c3ccccc3)nc(Cl)n2)cc1OC |  | inactive: -14.8% |
| O=C(CSc1nnnn1C1CCCC1)c1ccc2c(c1)OCCO2 |  | inactive: -1.23% [at 9.24 µM] |
| Cc1[nH]c2ccccc2c1C1=CC(=O)C=CC1=O | active: 20.6 µM |  |
| C[C@@H]1CN([C@H](C)CO)C(=O)c2cc(NC(=O)Nc3ccc(F)cc3)ccc2O[C@@H](C)CCCCO[C@H]1CN(C)S(=O)(=O)c1cccs1 | inconclusive: 8.2 µM [cytotoxic, partial curve] |  |
| O=C1C=C(O)CC(c2ccc(Cl)c(Cl)c2)C1 (stereo not drawn) |  | inactive: 4.35% |
| Brc1ccc(OCc2nc(-c3ccccn3)n[nH]2)cc1 | inconclusive: 29.1 µM [cytotoxic, single point] |  |
| CN(C)/N=C/c1cc([N+](=O)[O-])ccc1O |  | inactive: -2.75% |
| CC1CCN(S(=O)(=O)c2ccc(NC(=O)Cn3nnc(-c4ccccc4F)n3)cc2)CC1 | inconclusive: 25.1 µM [cytotoxic, single point] |  |
| COc1ccc(OCc2cc(C(=O)N3CCCC(O)C3)no2)c2ccccc12 (stereo not drawn) |  | inactive: -10.1% |
| Nc1nc(SCC(=O)Nc2ccccc2)nc2nc3c(cc12)CCCC3 | inconclusive: 18.4 µM [cytotoxic, partial curve] |  |
| CN1C(=O)CS/C1=N\NC(=O)COc1cccc2cccnc12 |  | inactive: 13.9% |
| O=C(/C=C/c1ccc(S(=O)(=O)N2CCOCC2)cc1)NC(=S)NCCCn1ccnc1 | inconclusive: 20.6 µM [cytotoxic, partial curve] |  |
| CCn1c(-c2ccc(N(C)C)cc2)nc2ccccc21 | inconclusive: 25.9 µM [cytotoxic, single point] |  |
| CC(C)C[C@H]1CN(CCCC[C@H]2CNC(=O)C(=O)N2Cc2ccccc2)C(=O)C(=O)N1CCC1CCCCC1 | inconclusive: 20.6 µM [cytotoxic, single point] |  |
| Cc1ccc(C)n1-c1ccc(N2CCOCC2)c([N+](=O)[O-])c1 | inconclusive: 23.1 µM [cytotoxic, single point] |  |
| Cc1ccc(S(=O)(=O)c2nc(S(=O)(=O)c3ccccc3)sc2N2CCN(C)CC2)cc1 | inconclusive: 29.1 µM [cytotoxic, single point] |  |
| COC(=O)N/N=C/c1cc(Cl)c(OCc2ccc(F)cc2)c(OC)c1 | inconclusive: 23.1 µM [cytotoxic, single point] |  |
| CC(=O)N(O)CCCCCNC(=O)CCC(=O)N(O)CCCCCNC(=O)CCC(=O)N(O)CCCCCN | inconclusive: 20.6 µM [cytotoxic, partial curve] and inconclusive: 13 µM [cytotoxic, partial curve] |  |
| Cc1ccc(OC(C)C(=O)Nc2cccc(S(=O)(=O)N3CCCCCC3)c2)cc1 (stereo not drawn) |  | inactive: -19.7% |
| O=C(Cn1ncc(Cl)c(Cl)c1=O)N1CCN(S(=O)(=O)c2ccc3ccccc3c2)CC1 | active: 3.66 µM |  |
